In all, about 110,000 compounds were measured (“z-score”: median about -0.1, highest 2% from about 2 on). The list shows a part of the results. Active and inactive are the calls of the source.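 The calls were made as follows: active = z-score in the third read window above 3 or below -3; inactive = the rest.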
Target: Metabotropic glutamate receptor 8 (Rattus norvegicus) (UniProt P70579)
Assay: mGluR8 Gi/Go-coupled signaling modulation – cell-based, rat, thallium flux, HTS, primary screen (AID 488969)
Conditions: HEK293 rat mGluR8, GIRK (G protein-gated inwardly rectifying potassium channel) thallium flux, FluoZin2; at 10 µM; stronger effect = higher value; submaximal glutamate (EC20) added with thallium

Sequence of UniProt P70579 (P70579 whole entry, looked up): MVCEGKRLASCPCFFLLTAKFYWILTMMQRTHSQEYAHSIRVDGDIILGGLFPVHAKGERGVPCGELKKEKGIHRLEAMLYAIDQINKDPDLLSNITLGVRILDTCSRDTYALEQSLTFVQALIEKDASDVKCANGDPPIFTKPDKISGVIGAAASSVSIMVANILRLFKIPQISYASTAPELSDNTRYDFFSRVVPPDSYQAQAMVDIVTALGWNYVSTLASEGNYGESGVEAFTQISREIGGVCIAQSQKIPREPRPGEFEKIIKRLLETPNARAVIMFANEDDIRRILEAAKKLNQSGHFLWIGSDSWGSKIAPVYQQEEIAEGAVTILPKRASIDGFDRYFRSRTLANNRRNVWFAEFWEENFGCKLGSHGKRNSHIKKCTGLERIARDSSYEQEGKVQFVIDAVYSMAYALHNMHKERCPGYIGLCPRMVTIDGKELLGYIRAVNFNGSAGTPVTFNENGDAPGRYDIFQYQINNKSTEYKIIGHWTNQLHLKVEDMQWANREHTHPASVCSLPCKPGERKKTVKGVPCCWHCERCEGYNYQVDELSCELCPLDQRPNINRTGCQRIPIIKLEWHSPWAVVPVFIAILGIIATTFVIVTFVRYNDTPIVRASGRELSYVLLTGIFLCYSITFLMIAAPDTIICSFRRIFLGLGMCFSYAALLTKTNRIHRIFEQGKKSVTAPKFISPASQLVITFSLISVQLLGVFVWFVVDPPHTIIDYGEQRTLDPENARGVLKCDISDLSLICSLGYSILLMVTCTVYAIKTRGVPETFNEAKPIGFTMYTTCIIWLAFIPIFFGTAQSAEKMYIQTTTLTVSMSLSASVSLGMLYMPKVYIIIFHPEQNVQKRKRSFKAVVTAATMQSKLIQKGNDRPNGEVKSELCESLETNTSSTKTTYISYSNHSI

Compound	z-score
COC(=O)c1sc(Nc2ccccc2)nc1C	-0.75
CC(C)C(=O)NCCCc1ccccc1	-0.344
CSc1nc(C)cc(SCC(=O)N/N=C/c2ccccc2)n1	-0.421
COc1nc2c(s1)C(=O)NCCC2	-0.142
CCOc1ccccc1-n1c(=O)c2ccccc2c2ccccc2c1=O	-0.269
Cc1cc(C)c[n+](-c2nc3ccccc3nc2[N-]S(=O)(=O)c2ccc(Cl)cc2)c1	-0.0439
Cn1c(=O)c2c(nc(NC3CCCCC3)n2Cc2ccccc2)n(C)c1=O	-1.93
O=C1CC2C(CC(OC(=O)c3ccc(-c4ccccc4)cc3)C2CO)O1 (stereo unspecified)	-0.152
Nc1nnc(SCC(=O)OCc2ccccc2)s1	-0.0572
CCC(=O)c1cc(F)c(N2CCN(C(=O)Cc3ccccc3)CC2)cc1C	0.99
CCOc1ccc2[nH]c(=O)c(CN(CCc3ccccc3)C(=O)c3cnccn3)cc2c1	-0.596
c1cncc(-c2nc3cc4ccccc4cc3[nH]2)c1	-0.554
COCCNC(=O)c1ccc2c(=O)n(Cc3ccco3)c(SCC(=O)NC3CCCC3)nc2c1	-0.0789
CCCCn1c(=O)c(CCC(=O)OCC(=O)Nc2ccc(C)c(Cl)c2)nc2ccccc21	-0.0154
COc1ccccc1C1=Nn2c(nnc2C2CCCCC2)SC1	-1.07
CCCCCCCCCn1cc(C(C)=O)c(=O)[nH]c1=O	-0.428
COCCCNC(=O)c1cc2c(=O)n(C)c3ccccc3c2n1C	-0.127
CCN(CC)c1ccc2cc(C(=O)NNC(=O)c3ccc(S(=O)(=O)N4CCCCC4)cc3)c(=O)oc2c1	-2.06
COc1cc(/C=C/C(=O)O)cc(S(=O)(=O)N(C)CCO)c1OC	-0.279
C=CCSc1nc2c(c(=O)[nH]c(=O)n2C)n1CC	-0.0665
COc1cc2c(cc1NC(=O)C(c1ccccc1)c1ccccc1)CCCC2	-0.42
CCN(CC)CCCNC(=O)C(C)n1nc(C)c2sc3ccccc3c2c1=O (stereo unspecified)	0.158
O=C(COC(=O)c1ccc(S(=O)(=O)N2CCc3ccccc3C2)cc1)NC(=O)NCc1ccco1	0.0161

Compound	z-score
O=C(c1cccs1)c1coc2ccc(O)cc12	0.513
O=C(COc1ccc(C(=O)c2ccccc2)cc1)NC1CCCCCC1	0.0351
CCOC(=O)c1ccc(NC(=S)NNC(=O)C2(C)CC2(Cl)Cl)cc1 (stereo unspecified)	-0.291
Cn1cnnc1SCC(=O)NN(c1ccccc1)c1ccccc1	-0.0793
CCN1C(=O)CC(N2CCC(C(=O)OC)CC2)C1=O (stereo unspecified)	0.16
CNS(=O)(=O)c1cc(C(=O)NCc2ccco2)ccc1Cl	0.119
O=C(Cc1cccs1)Nc1cccnc1	active: 3.36
CC1CCN(CC(O)COCCOc2ccc(Br)cc2)CC1 (stereo unspecified)	0.0792
CCOCC(=O)Nc1nnc(COc2ccc(Cl)cc2)s1	0.0363
COC(=O)c1ccccc1OCCCOc1ccc(C=O)cc1OC	-0.36
O=[N+]([O-])c1ccc(-c2cnc(SC(c3ccccc3)c3ccccc3)[nH]2)cc1	-0.274
O=C(Nc1nnc(-c2ccc(F)cc2)s1)C1CCN(S(=O)(=O)c2ccc(Cl)cc2)CC1	-0.14
COc1ccc(N=C2C(=Nc3ccc(OC)cc3)N(c3ccc(OC)cc3)C(=S)N2C(=O)c2ccc(OC)cc2)cc1	-0.409
COc1ccccc1NC(=O)CN1CCC(n2nnc3cc(F)ccc32)CC1	-0.581
O=C(CCS(=O)(=O)c1cccs1)N1CCN(c2ccc(F)cc2)CC1	0.0362
CC(=O)C1=C(C)NC(SCC(=O)c2ccc(Cl)cc2)=C(C#N)C1CC(C)C (stereo unspecified)	-0.467
Cc1ccc([N+](=O)[O-])cc1N/C=C1\CCc2ccccc2C1=O	0.17
COC(=O)c1ccc(NC2(C#N)C(=O)Nc3ccccc32)cc1 (stereo unspecified)	-0.744
C/C(=N/NC(=O)C1CCCCC1)c1ccc([N+](=O)[O-])cc1	-0.537
c1ccc(NCc2cccnc2)cc1	-0.0884
NNC(=O)COc1ncn(-c2ccccc2)n1	0.0482
CCn1c(CCNC(=O)c2ccc(Cl)cc2Cl)n[nH]c1=S	-0.193
O=C(CSCc1ccc(Br)cc1)N1CCOCC1	0.939

Compound	z-score
COc1cccc(/C(C#N)=C/c2c(-c3ccc(Cl)cc3)nc3c(C)cccn23)c1	0.373
O=C(c1cc2c(ccc3ccccc32)oc1=O)N1CCCC1	-0.158
CCn1c(Cc2ccccc2)nnc1SCC(=O)Nc1cc(C)on1	0.0158
N#Cc1cc(Oc2ccc(Cl)cc2)c(N2CCOCC2)cc1C#N	-0.388
Cc1cccc(NC(=O)Cn2c(=O)oc3ccccc32)c1	0.936
O=C(NC1CCCC1)c1cc(-c2cccs2)on1	-0.243
NC(=O)CSc1nnc(-c2ccc(S(=O)(=O)N3CCCCC3)cc2)n1-c1ccccc1	-0.00995
COc1ccc(C2C(C#N)=C(N)Nc3nc4ccccc4n32)cc1 (stereo unspecified)	0.0826
COC(=O)Oc1cncc(C(=O)O)c1	-0.0704
Cc1ccc(NC(=S)c2ccc(N(C)C)cc2)cc1	-0.129
Cc1ccccc1C(=O)/C=C1/c2ccccc2CC(C)(C)N1C	-0.398
Cc1c(Cl)c([N+](=O)[O-])nn1CC(=O)NCc1cccs1	-0.28
NC(=O)COC(=O)CN1C(=O)C2CCCCC2C1=O (stereo unspecified)	-0.18
Cc1noc(/C=C/c2ccco2)c1S(=O)(=O)N1CCC(C(=O)N2c3ccccc3CC2C)CC1 (stereo unspecified)	-0.615
CCOc1ccc(C(=O)NCC(=O)OCC(=O)c2ccc3c(c2)-c2ccccc2C3)cc1	-0.0949
CCOC(=O)c1sc2ccccc2c1OC(=O)c1ccccc1	0.13
COC(=O)CC1C(=O)NCCN1C(=O)CSc1nnc(Nc2ccc(OC)cc2)s1 (stereo unspecified)	0.184
O=C(CSc1nc(-c2ccco2)cc(C(F)(F)F)n1)NC1CCCC1	-0.137
O=C(NNC1=NCCC1)c1cccc(S(=O)(=O)N2CCOCC2)c1	-0.144
CN1CCN(CC(=O)N(C)c2nc(-c3ccccc3)cs2)CC1	1.12
CCOC(=O)c1sc(=S)n(-c2cccc(C(F)(F)F)c2)c1SC	-0.0921
Cc1nn(-c2ccccc2)c2c1C(=O)NC(=O)C(C)(C)C2	0.011
O=C(NC(=S)Nc1ccc(Cl)cn1)C(c1ccccc1)c1ccccc1	0.284

Compound	z-score
O=C(Cc1ccccc1)NC1CCN(S(=O)(=O)c2ccc(C(=O)O)cc2)CC1	-0.248
COc1cc(CN2CCC(C(=O)N3CCCC(C)C3)CC2)cc(OC)c1O (stereo unspecified)	-0.299
CC1CC(C)CN(c2ccc(C(=O)OCC(=O)NC3CCCc4ccccc43)cc2[N+](=O)[O-])C1 (stereo unspecified)	0.539
O=C1c2ccccc2NC(c2ccccc2)N1/N=C/c1ccccc1 (stereo unspecified)	-0.228
O=C(CN1CCCCCCC1)N/N=C/c1ccc(F)cc1F	-0.63
Cc1cc(C(=O)Nc2ccccn2)cs1	-0.104
CC(C)(C)NC(=O)C12CCC(C)(c3nc4ccccc4nc31)C2(C)C (stereo unspecified)	-0.114
Cc1ccc(C(=O)OCC(=O)NCc2cccs2)cc1	0.656
CCCOc1ccc(C(=O)C(CN2CCOCC2)c2ccccc2)cc1 (stereo unspecified)	-0.565
O=C1CSC(c2cn(-c3ccccc3)nc2-c2cc3ccccc3o2)N1Cc1ccccc1 (stereo unspecified)	-0.53
COc1ccccc1N(C(=O)c1ccncc1)c1nc(-c2ccc([N+](=O)[O-])cc2)cs1	-0.551
CCOC(=O)N1CCN(C(=O)C2CCC(CNS(=O)(=O)c3ccc(Cl)cc3)CC2)CC1 (stereo unspecified)	-0.454
Cc1ccc(NC(=S)N(CCCN2CCOCC2)Cc2ccco2)cc1Cl	-0.365
COC(=O)c1ccc(Sc2nnnn2-c2ccccc2)c([N+](=O)[O-])c1	-0.27
O=C1CN(C(=O)CSc2nc3cc(Cl)ccc3c(=O)n2Cc2ccccc2)c2ccccc2N1	active: 7.11
O=S(=O)(Nc1ccc2c(c1)OCCO2)c1ccc(F)cc1	-0.102
N#C/C(=C/c1ccc(CNC(=O)C(=O)Nc2cc(Cl)cc(Cl)c2)o1)C(=O)NCc1cccnc1	-0.181
O=C(CN1C(=O)C2C3C=CC(C3)C2C1=O)Nc1cccc2c1CCCC2 (stereo unspecified)	-0.222
C=CCSc1nc2c(c(=O)n(C)c(=O)n2C)n1CC	0.292
O=C(Nc1ccccc1N1CCN(c2ccccc2)CC1)C12CC3CC(CC(C3)C1)C2	0.288
Cc1nc(SC2CC(=O)N(c3cc(Cl)cc(Cl)c3)C2=O)nc2c1CCCC2 (stereo unspecified)	0.031
Cc1ccc(-c2nnc(CSc3nnc(C)s3)o2)cc1	0.552
COc1ccc(NC(=O)c2sccc2SCc2cccc(C(F)(F)F)c2)cc1	-0.392

Compound	z-score
Cn1c(=O)n(C)c2cc(S(=O)(=O)N3CCCc4ccccc43)ccc21	-0.0429
Cc1ccc(C)c(S(=O)(=O)Nc2ccc3sc(C)nc3c2)c1	0.181
O=C(O)c1sccc1SCc1ccc(Cl)c(Cl)c1	-0.611
CCOc1cnc(-c2ccc(OC)cc2)o1	-0.159
Cc1cc(C)c2oc(-c3ccc(Cl)c(NC(=O)c4ccc(C#N)cc4F)c3)nc2c1	-0.14
O=C(OC(c1ccc(NS(=O)(=O)c2ccccc2)cc1)(C(F)(F)F)C(F)(F)F)c1ccccc1	-0.983
CC1=CC(C)(C)N(S(=O)(=O)c2ccc(C)cc2)c2ccc(C)cc21	0.0904
C=CCN1C(=O)/C(=C/c2ccccc2)S/C1=N/c1nccs1	-0.00934
Cc1ccc(S(=O)(=O)NCCNC(=O)CN2CCCC2)cc1	0.319
O=C(O)c1cc(-c2ccccc2Cl)n[nH]1	-0.1
CSc1nnc(-c2cc3ccccc3cc2O)n1C	1.39
CNS(=O)(=O)c1ccc(Oc2ccc(S(=O)(=O)NC)cc2)cc1	0.861
CC(C)(C)N(NC(=O)Nc1ccc(Cl)c(Cl)c1)C(=O)c1ccccc1	1.85
S=C(Nc1ccc(Cl)cc1)N1CCN(C2CCCCC2)CC1	-0.316
O=C(c1cc2c(=O)oc3ccccc3c2s1)N1CCOCC1	-0.802
Cc1nc2nc(-c3cccnc3)nn2c(C)c1Cl	0.342
Cc1cccc2[nH]c3c(N4CCC5(CC4)OCCO5)ncnc3c12	-0.208
COc1ccc(-n2nnc3c(=O)n(Cc4ccccc4C)cnc32)cc1	-0.283
CCOC(=O)c1cc(NC(=O)C2C3CCC(O3)C2C(=O)O)cc(C(=O)OCC)c1 (stereo unspecified)	0.0323

— PubChem BioAssay AID488969 (Vanderbilt High Throughput Screening Facility, 2010)
